Biological target: T1, Atto-488- or Atto-594-labelled, biotinylated CaMKII^WT-AviTag (human, UniProt Q9UQM7 6-478, Atto-488 or Atto-594 maleimide dye on the sortase recognition peptide (CLPETGG) joined to the N-terminus with SrtA; biotin on the AviTag)
T1 construct: Calcium-calmodulin-dependent protein kinase 2 alpha, human, lacking the first 5 residues, with a 30-residue linker; The two differently labelled samples differ only in the fluorophore and are written as one molecule; also called Atto-488-CaMKII^WT; Atto-594-CaMKII^WT; source: E. coli BL21 DE3, purified; biotinylated with BirA and labelled with sortase A in vitro; not shown: His6, N-terminal, …
Test: single molecule TIRF colocalization; differently labelled holoenzymes, 55 nM CaMKII, incubated with 150 nM CaM/Ca2+, 1 mM ATP, 2 mM MgCl2 for 2 min at 37 °C (activated), then bound to a NeutrAvidin coverslip; 25 mM Tris pH 8, 150 mM KCl, 1 mM TCEP; holoenzyme with holoenzyme
Conditions: both partners purified

B1: Atto-488- or Atto-594-labelled, biotinylated CaMKII^KD-AviTag (enzyme)
chain: not shown
modifications: Atto-488 or Atto-594 maleimide dye on the sortase recognition peptide (CLPETGG) joined to the N-terminus with SrtA; biotin on the AviTag
notes: Calcium-calmodulin-dependent protein kinase 2 alpha, human, lacking the first 5 residues, with a 30-residue linker; The two differently labelled samples are written as one molecule; also called labeled CaMKII^KD; differently labeled CaMKII^KD; source: E. coli BL21 DE3, purified; biotinylated with BirA and labelled with sortase A in vitro; not shown: His6, N-terminal, cleaved; AviTag, C-terminal, …
B1: binds.
